# Measured values published in the supplement of paper PMC3334620.
# Whole data set: some 33,000 sequences, median “E-score (-0.5 to 0.5)” near -0.041, cut for the highest 2% near 0.37. This is one part of the list.
# Biological target: T1, Ecm22 (UniProt Q05958)
# T1 sequence: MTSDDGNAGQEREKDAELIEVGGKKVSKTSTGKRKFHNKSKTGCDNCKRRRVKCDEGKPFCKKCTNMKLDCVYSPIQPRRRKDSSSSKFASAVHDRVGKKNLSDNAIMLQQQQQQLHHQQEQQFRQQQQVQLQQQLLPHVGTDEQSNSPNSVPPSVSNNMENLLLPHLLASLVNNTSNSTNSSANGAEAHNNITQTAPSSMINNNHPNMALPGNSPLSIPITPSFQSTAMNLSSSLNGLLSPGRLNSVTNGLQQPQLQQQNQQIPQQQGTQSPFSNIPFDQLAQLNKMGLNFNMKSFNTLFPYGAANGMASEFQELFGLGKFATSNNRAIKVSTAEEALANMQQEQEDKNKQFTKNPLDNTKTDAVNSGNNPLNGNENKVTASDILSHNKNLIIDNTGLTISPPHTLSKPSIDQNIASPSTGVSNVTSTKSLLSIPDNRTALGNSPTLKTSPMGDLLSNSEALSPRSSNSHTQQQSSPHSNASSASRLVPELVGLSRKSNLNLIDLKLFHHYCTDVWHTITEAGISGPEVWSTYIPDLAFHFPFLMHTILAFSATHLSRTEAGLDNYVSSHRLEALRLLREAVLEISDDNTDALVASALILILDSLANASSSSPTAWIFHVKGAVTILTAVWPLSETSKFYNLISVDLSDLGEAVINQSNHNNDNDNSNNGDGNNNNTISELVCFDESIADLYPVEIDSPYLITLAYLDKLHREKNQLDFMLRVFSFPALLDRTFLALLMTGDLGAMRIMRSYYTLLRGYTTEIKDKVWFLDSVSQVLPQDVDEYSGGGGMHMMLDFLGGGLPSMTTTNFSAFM
# Assay: PBM E-score (8-mer binding enrichment) (E-score (-0.5 to 0.5)); higher = stronger / more preferred TF binding; most listed sequences are background and not binding sites
# Details: protein concentration: 200 nM; construct: GST-full length
# In short: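 Bound GST-tagged yeast transcription factors, applied at about 100-200 nM to double-stranded universal all-10-mer Agilent arrays, were detected with fluorescent anti-GST. Scans were normalised with masliner. A modified Wilcoxon-Mann-Whitney statistic, the E-score, was assigned to each ungapped eight-base word pooled with its reverse complement by the Universal PBM Analysis Suite.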
row,Sequence,PBM E-score
1,ACAAGCAG,-0.204
2,CACTTGCG,-0.0631
3,ATGTGCGC,-0.14
4,CGGCTTCA,-0.00366
5,CAGTGGAG,-0.165
6,CCCGACCA,0.00072
7,CGCTCGGC,0.141
8,AGGCGTAG,-0.177
9,CCACCTTC,-0.13
10,CCCCGCAA,0.0748
11,CCTCTCAA,-0.127
12,CAGTGAGG,-0.352
13,GGTTCGAA,0.182
14,AGTCCCAT,-0.253
15,TCTGTCCA,-0.187
16,CGGATTTC,0.0823
17,GAACCCTA,-0.123
18,AGAGTTTC,-0.102
19,CAGGAGTA,-0.0878
20,TCAGGGGA,-0.136
21,AAATCTCG,0.25
22,ACTTTGCA,0.052
23,ACCGATCA,0.0381
24,CCAGCCTA,-0.257
25,CCGTGTTC,0.0114

row,Sequence,PBM E-score
1,TACTCAAA,-0.0956
2,ATTGGTAC,0.169
3,TACATGCA,0.161
4,AACGAATC,0.387
5,CCCTTCCA,-0.32
6,ACGATATC,0.351
7,GATTGAAC,0.124
8,ACCCAACT,-0.0741
9,CAAAAACA,0.0232
10,AATGCTCG,0.204
11,AACCCCGC,-0.0105
12,CAATAAAC,0.173
13,AATTGTTA,-0.0477
14,ACGAGAAA,0.375
15,AAGTCCCG,-0.0221
16,AAATTGTC,-0.0797
17,AGCTTTGC,-0.0944
18,AAGTTAAT,-0.0998
19,ACATATCC,-0.103
20,TAGATGCA,-0.0338
21,GAGCCTCC,-0.0561
22,ACTGTTCC,-0.0468
23,AGTCGCGG,0.00929
24,CACTAGAG,-0.148
25,TGCGGAAA,0.0553

row,Sequence,PBM E-score
1,ACGTTACA,0.014
2,AACAGCGG,-0.0757
3,CGGGCTAG,-0.133
4,GGTGGAAC,0.236
5,TCTCGAAA,0.107
6,CTCTACAA,-0.0288
7,GGGTCAGA,-0.0187
8,AGATACAA,0.0164
9,AAGCGGGA,0.0519
10,ACAGCGGA,-0.144
11,CCAACTGC,-0.173
12,CACCGAGA,-0.0035
13,AACCGCAC,0.0331
14,CGCCCCAG,-0.0935
15,CCTTGATC,-0.0846
16,ACATGAAG,-0.225
17,CATCATTA,-0.024
18,CACAATGG,-0.202
19,TTATATAA,0.145
20,AGCATATA,0.0134
21,AGCGGCGG,0.149
22,GAGCATGC,-0.196
23,CGTACATC,0.353
24,ATGAGGGG,-0.262
25,ATACTCAC,0.0494

row,Sequence,PBM E-score
1,GAGTAAGC,-0.091
2,ATTGCTTA,-0.155
3,ACCAGAAT,-0.0563
4,ATAACGGC,0.146
5,CTGTCGCA,0.124
6,CATAAACG,0.437
7,ACACATCG,0.0325
8,GCCCGCCA,-0.215
9,CCACAGCG,-0.215
10,GGCGTCAA,-0.119
11,ATTTTGTG,-0.0742
12,ACCCGCAT,0.195
13,ATTTGCAC,-0.0139
14,CAGCTTAG,-0.275
15,GATTAGAC,-0.00927
16,GCACATGC,-0.199
17,GGTGCTAC,-0.158
18,AGCGGACC,0.0552
19,CCGGATTA,-0.0891
20,ATGTGAGA,-0.24
21,CGTGGCTC,-0.0731
22,ATAGTCGC,0.146
23,CAACCCTA,-0.119
24,ATCATTAC,0.0137
25,ATACTGTG,-0.00032

row,Sequence,PBM E-score
1,ATTACTCG,0.162
2,CCTCGCCC,0.209
3,ACCACTCA,-0.0269
4,CCGCATTC,-0.074
5,AAGCCAGC,-0.0184
6,CTTCTATC,-0.0966
7,CCGGCCTA,-0.0841
8,CGCGGCCA,-0.187
9,CATCCTCC,0.0293
10,GTAGCTTA,0.121
11,AATGGCTG,-0.124
12,AGAACTTG,-0.0307
13,CCGCCATC,-0.267
14,TATCTACA,-0.0752
15,GAGGTAAC,0.122
16,ACAAGAAC,0.205
17,GTTGATTA,-0.011
18,CAGCACAA,0.0144
19,ACGGGGCT,0.0577
20,CTAATCAG,-0.108
21,CCTCGCAG,0.0132
22,ACGCCAAT,0.125
23,ATTGTGAG,-0.0713
24,AATAGACG,0.0929
25,CAGTCCGA,-0.0909

row,Sequence,PBM E-score
1,CCGTGGAG,-0.179
2,CCTGCCCA,-0.4
3,CCCTCATC,-0.0579
4,CATGCGAA,0.214
5,CTGTAAAG,-0.0602
6,AAGGCGTC,-0.0974
7,TAGATACA,0.00716
8,AACCACAG,-0.0787
9,ACCATGCC,-0.251
10,GTCGAGGA,-0.11
11,CAGGCCGG,-0.32
12,ACGAAATA,0.381
13,GCCGTACC,0.441
14,ATCGTCAG,-0.276
15,CTACTGCA,-0.158
16,ATCACTGA,-0.129
17,CAAGAGAG,-0.156
18,GAAATATA,0.16
19,CGCCTGTC,-0.0793
20,CAGTCAGG,-0.254
21,AGTCCTTG,-0.27
22,GGACGGAC,-0.0309
23,GATGGCAA,-0.0627
24,TAAAGCTA,-0.115
25,AGTGCCCA,-0.126

row,Sequence,PBM E-score
1,CGCCGCTA,-0.0727
2,AACTGCCG,0.0114
3,CGCAAGAA,0.152
4,CCGAGACG,0.205
5,GCAAGAAA,-0.095
6,ATCGTATC,0.418
7,AATACCGG,-0.042
8,CGACTTTC,0.112
9,GCACAGTA,0.0488
10,CATGGGAC,-0.278
11,AACGGTCA,0.204
12,GCAGGGCC,-0.0785
13,GCCAGATA,-0.00835
14,CTAATATC,0.00353
15,ACCATCAA,-0.121
16,CCGTCAGC,-0.215
17,CTCACTAA,0.085
18,AACTGCCA,-0.0583
19,AGCGCATA,0.025
20,CCTTCGGA,0.249
21,CGCTCAGA,0.112
22,ATCCCACG,-0.124
